Measured values from article PMC12136788.
The other results are listed elsewhere or left out.

T1: UNK ZnF1-6 (called full-length) (human, UniProt Q9C0B0 30-357)
T1 sequence: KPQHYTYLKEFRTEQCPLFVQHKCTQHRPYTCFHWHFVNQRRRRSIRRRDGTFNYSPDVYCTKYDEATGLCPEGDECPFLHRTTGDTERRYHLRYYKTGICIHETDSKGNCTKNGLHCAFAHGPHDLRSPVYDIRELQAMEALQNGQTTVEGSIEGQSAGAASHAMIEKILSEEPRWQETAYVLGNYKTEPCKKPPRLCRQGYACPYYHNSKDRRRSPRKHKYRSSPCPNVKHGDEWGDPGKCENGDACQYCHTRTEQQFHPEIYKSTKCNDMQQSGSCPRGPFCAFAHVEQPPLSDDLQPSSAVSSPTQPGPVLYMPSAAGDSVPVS

B1: chr4:54297753:54297953:+|3pUTR|ENSG00000134853|msi1|FALSE|unique (ssRNA)
RNA: GGGAGUUCUACAGUCCGACGAUCUUUUUAUGAUGACAAUCAAAGCCGGCCUGAGAAACACUAUUUGUGACUUUUUAAACGAUUAGUGAUGUCCUUAAAAUGUGGUCUGCCAAUCUGUACAAAAUGGUCCUAUUUUUGUGAAGACAACAGAGGAUUGAGCAUCA
B2: chr12:57516587:57516808:-|three_prime_utr|ENSG00000175197|control|control|control (ssRNA)
RNA: GGGAGUUCUACAGUCCGACGAUCCCCCCACUUGGGCCACACUACCCACCUUUCCCAGAAGUGGCUACUGACUACCCUCUCACUAGUGCCAAUGAUGUGACCCUCAAUCCCACAUACGCAGGGGGAAGGCUUGGAGUAGACAAACAACAGAGGAUUGAGCAUCA
B3: chr19:18196783:18197469:-|three_prime_utr|ENSG00000105649|control|control|control (ssRNA)
RNA: GGGAGUUCUACAGUCCGACGAUCACUACCCGGGCCUGACCCGGCCCCUACCAGCCACGGGCACAAGACCCCUGCUCCUGACUUAGCCCGUCACCCUUAUUUAUUAUUGUAGCUAUUUAUUUAUUUAUUGAAGAUGUCCCCCAGCAACAGAGGAUUGAGCAUCA
B4: chr8:144773268:144774605:-|CDS|ENSG00000196378|control|control|control (ssRNA)
RNA: GGGAGUUCUACAGUCCGACGAUCCACCAGAGGAUUCACACUGGGGAGAAACCCUACAAGUGUGGGGAGUGUGGGAAGCACUUUAGCGCCUACUCUUCCCUGAUUUAUCACCAGAGAAUCCACACCGGAGAGAAACCCUAUAAACAACAGAGGAUUGAGCAUCA
B5: chr17:61865808:61865921:-|3pUTR|ENSG00000108506|unk|FALSE|unique (ssRNA)
RNA: GGGAGUUCUACAGUCCGACGAUCUUCUAUGAGAAUGAGUUUGUAGCUGUUUCAAAUCAUGAAGUGCAUAGUAUCACAUGUGAUAGAAUAUUUAUAACUUUUUAUUAGAUGCUUAAUGUUCAAUUAAGUAAUUUUGAUGUGAAACAACAGAGGAUUGAGCAUCA
B6: chr12:2800410:2800520:+|CDS|ENSG00000004478|unk|total|mutant (ssRNA)
RNA: GGGAGUUCUACAGUCCGACGAUCAAAUACAAGCAAGCUUUACUACAGUAUAAGAAGAUCGUGUCUUGGCUGGAAUAUGAGUCCCGUUUUUCCAAUGAGGAAGCACAGAAAGCACAGGCCCUUCGACUGGCCUCUCACCUCAACCAACAGAGGAUUGAGCAUCA
B7: chr3:115809552:115809653:-|3pUTR|ENSG00000185565|unk|FALSE|unique (ssRNA)
RNA: GGGAGUUCUACAGUCCGACGAUCCUCCCUCACCUCUCCUCACCUCCACCCCCUCCCCAGAGCACUAGUCAUGCCGCAAAUGCUAGGAAGUGCCAUUUUCAUUUUCUCCACUGUGCGUGUGUGCUCAAGUCUUUCGCUCUCACGCAACAGAGGAUUGAGCAUCA
B8: chr5:128187618:128187661:+|3pUTR|ENSG00000064651|msi1_unk|FALSE|overlapping (ssRNA)
RNA: GGGAGUUCUACAGUCCGACGAUCUCCUUUAUAAGUCAUUAAAAUAAUGUUUCAUCAAAUGGUUAAAUGGACCACUGGUUUCUUAGAGAAAUGUUUUUAGGCUUAAUUCAUUCAAUUGUCAAGUACACUUAGUCUUAAUACACUCAACAGAGGAUUGAGCAUCA
B9: chr6:11183298:11183399:-|3pUTR|ENSG00000111859|msi1|FALSE|unique (ssRNA)
RNA: GGGAGUUCUACAGUCCGACGAUCACAUUUCACAUUUUUAAAACCAAAUGUUCAAUCUGUAUUACUCUUUGCCGUCUUGUAUGUAGAGGCUAUUUUUAAAUCAUUAAAUUUUUAGAUCUCUGUUUUCAUAGCCACUGGGUUUUCCAACAGAGGAUUGAGCAUCA
B10: chr1:62654060:62654161:-|CDS|ENSG00000116641|unk|total|mutant (ssRNA)
RNA: GGGAGUUCUACAGUCCGACGAUCCUUGUUUUCUACCCAUCUCUUAUCCCAACUUUUUACAAAGGUGCCCCUUACCGAAGCAGCCGAUCCAGUGGAUUUGGAAGAUUACCUCAUUACUCAUCCUUUGGCUGUGGAUUCUGGGCCCAACAGAGGAUUGAGCAUCA
B11: chr16:3727180:3727281:-|3pUTR|ENSG00000005339|msi1|FALSE|bound_elsewhere (ssRNA)
RNA: GGGAGUUCUACAGUCCGACGAUCAAUGCAAGCUUAUAAUGUAUCCCGAUAACUUUGUGAUGUUUCGGGAAGAUUUUUUUCUAUAGUGAACUCUGUGGGCGUCUCCCAGUAUUACCCUGGAUGAUAGGAAUUGACUCCGGCGUGCAACAGAGGAUUGAGCAUCA
B12: ENSG00000124766:be:win_2551|3pUTR|ENSG00000124766|bound_else_gene|NA|bound_elsewhere_windowed (ssRNA)
RNA: GGGAGUUCUACAGUCCGACGAUCUCUUUUAAAGAUUUCUGUAUAAGACUGUUGAGCAGUUUUUAAAAUAGUGUAGGAUAAUAUAAAAAGCAGAUAGAUGGCGCUAUGUUUGAUUCCUACAACGAAAUUAUCACCAGCUUUUUUCAACAGAGGAUUGAGCAUCA
B13: ENSG00000198589:be:win_8551|CDS_3pUTR|ENSG00000198589|bound_else_gene|NA|bound_elsewhere_windowed (ssRNA)
RNA: GGGAGUUCUACAGUCCGACGAUCCGCUACUGAUGGUGACAGCUGUACAUCAACUCUGCCCCUAGGAUGAGCAGAAGUACCUGGAGCAUCAUUCUCUUCUACCACAUCUGAAUGUAACUUAAAUUUGCUCAAAGAAGCAAAAUACAACAGAGGAUUGAGCAUCA
B14: chrX:108174439:108174621:-|CDS|ENSG00000197565|control|control|control (ssRNA)
RNA: GGGAGUUCUACAGUCCGACGAUCCGACCUGGACCACCAGGCCUACCUGGAGCUCCUGGCCUCCCAGGCAUUAUCAAAGGAGUUAGUGGAAAGCCAGGGCCCCCUGGCUUCAUGGGAAUCCGGGGCUUACCUGGCCUGAAGGGGCAACAGAGGAUUGAGCAUCA
B15: chr6:145799413:145799514:-|3pUTR|ENSG00000118496|msi1|total|mutant (ssRNA)
RNA: GGGAGUUCUACAGUCCGACGAUCUUAUCUCACAUACUUACAACUCAACACACAGAGUGACCAUGUGCAGCUUUCUUUUUUGUCCGAUGCCACAUCCGAAGACUCAUCGCAGUGUGUUAUAUGACAGGACAAAGCAAAAACAAACAACAGAGGAUUGAGCAUCA
B16: chr8:23842440:23842541:-|3pUTR|ENSG00000159167|msi1|FALSE|unique (ssRNA)
RNA: GGGAGUUCUACAGUCCGACGAUCCCAAUGCGACAAGUAGUUCAUGAGUAUUCCUAGCAAAUUUCUCUCUUUCUUCAGUUCAGUAGAUUUCCUUUUUUCUUUUCUUUUUUUUUUUUUUUUUUUUUGGCUGUGACCUCUUCAAACCAACAGAGGAUUGAGCAUCA
B17: chr17:74579364:74580001:-|three_prime_utr|ENSG00000204345|control|control|control (ssRNA)
RNA: GGGAGUUCUACAGUCCGACGAUCGGGCGAAAGGCCCUCCCACAGAAGAAAAAACAUUUUCUUUUCUCUUCUUUUUUUCUUUCUAGAGAUAGAGUCUUGCUCUGUCACCCAGGCUGGAAUGCAAUGGUGUAAUCUCUGCUCACUCAACAGAGGAUUGAGCAUCA
B18: chr5:148417036:148417137:+|CDS|ENSG00000145868|unk|FALSE|unique (ssRNA)
RNA: GGGAGUUCUACAGUCCGACGAUCGGUUGUGCUCGAGUUGGUCUGAGUGCAGGCACAGGAAUUGGUGUUUCAUCAGCUCUUGUUAGCAACCAGAACUCCAACAAUGACGAUAAUAAUGCCCAGAAUAACAAUGCCAACAUCCACCAACAGAGGAUUGAGCAUCA
B19: chr2:32377587:32377702:+|CDS|ENSG00000115760|unk|FALSE|unique (ssRNA)
RNA: GGGAGUUCUACAGUCCGACGAUCGGUGAAAUGUCAGUAUAUCUCUGCUGUGGAUAAAGUUAUAUUUGUGGAUGAUUAUGCAGUAGGGUGUAGGAAGGACCUUAAUGGAAUCUUGUUGUUAGACACUGCUCUGCAAACUCCAGUCAACAGAGGAUUGAGCAUCA
B20: chr14:75134463:75134564:-|3pUTR|ENSG00000170348|msi1|FALSE|unique (ssRNA)
RNA: GGGAGUUCUACAGUCCGACGAUCCUGUUUGGACUAUGUUUUCUUUUCUUCUCCCACUUGCUCAGCAGCUUGGGCUUCCAUUCUAGUUCUUUUACCAAGAUUUUUGUGUGACCAUGUUGACUUCAUUUGGAUUGCCCUCUUUCACAACAGAGGAUUGAGCAUCA
B21: chr1:161222291:161222522:-|three_prime_utr|ENSG00000158874|control|control|control (ssRNA)
RNA: GGGAGUUCUACAGUCCGACGAUCACACAGCCUGCCACCCAGUGAAGUGUCCAGACCAUUGUCUUCCAACCCCAGCUGGCCUCUAGAACACCCACUGGCCAGUCCUAGAGCUCCUGUCCCUACCCACUCUUUGCUACAAUAAAUCAACAGAGGAUUGAGCAUCA
B22: chr3:141442868:141442977:+|CDS|ENSG00000177311|unk|total|mutant (ssRNA)
RNA: GGGAGUUCUACAGUCCGACGAUCCCAGCCAUCACUAAUGGGCCAAGGAUCACAAAUGCAUUUUCCAUCAUCGAAACAGAAAACCGUAAUAACAUGUUUUCCCCGCUGGACUUGAGGGCAAGUUUCAAAAAGGUCUCCGACUCCCAACAGAGGAUUGAGCAUCA

biological target: T1, UNK ZnF1-6 (called full-length); test: nsRBNS (natural sequence RNA bind-n-seq); RBNS binding buffer (assumed for nsRBNS): 25 mM Tris pH 7.5, 150 mM KCl, 3 mM MgCl2, 0.01% Triton X-100, 500 ug/ml BSA, 20 U/ml SUPERase-In, 4 C; UNK is unkempt and MSI1 is Musashi-1; names of the RNAs are library labels; protein concentration not given here; high values mean tight binding

Binder | binding signal [enrichment R]
B1 | 0.454
B2 | 0.755
B3 | 66
B4 | 0.587
B5 | 2.51
B6 | 0.608
B7 | 2.06
B8 | 5.61
B9 | 2.43
B10 | 0.769
B11 | 0.647
B12 | 0.851
B13 | 0.467
B14 | 0.566
B15 | 0.316
B16 | 28.9
B17 | 0.885
B18 | 0.455
B19 | 0.488
B20 | 0.995
B21 | 1.09
B22 | 0.538
